# The list shows a part of the results.
# Test system: HSkMC (human skeletal muscle cells)
# Test: cytotoxicity call (relative viability < 0.9)
# Settings: 10 µM
row,Compound,cytotoxicity call
1,C[C@@H]1CN([C@@H](C)CO)C(=O)c2cccc(NC(=O)NC3CCCCC3)c2O[C@@H]1CN(C)C(=O)Nc1ccc(C(F)(F)F)cc1,active
2,COc1ccc(S(=O)(=O)N(C)C[C@H]2Oc3c(NS(=O)(=O)c4ccc(C)cc4)cccc3C(=O)N([C@@H](C)CO)C[C@@H]2C)cc1,inactive
3,Cc1ccc(S(=O)(=O)Nc2ccc3c(c2)C(=O)N([C@@H](C)CO)C[C@H](C)[C@@H](CN(C)S(C)(=O)=O)OCCCC[C@H](C)O3)cc1,inactive
4,Cc1ccccc1S(=O)(=O)N1C[C@@H](O)COC[C@@H]2O[C@H](CC(=O)NCCc3ccncc3)CC[C@H]21,inactive
5,Cc1noc(C)c1NC(=O)Nc1ccc2c(c1)C(=O)N([C@H](C)CO)C[C@@H](C)[C@@H](CN(C)S(=O)(=O)c1cccs1)OCCCC[C@@H](C)O2,inactive
6,O=C(O)C[C@@H](O)C(=O)O,inactive
7,C[C@@H]1CN([C@@H](C)CO)S(=O)(=O)c2ccc(C#CC3(O)CCCC3)cc2O[C@@H]1CN(C)C(=O)Cc1cccnc1,inactive
8,C=CC[C@H](CC(=O)NCCO)C(=O)N[C@@H](COC(=O)[C@H](CC=C)CC(=O)OC(C)(C)C)Cc1ccccc1,inactive
9,Cc1ccc(S(=O)(=O)N(C)C[C@H]2OCCCC[C@H](C)Oc3ccc(NS(=O)(=O)c4ccc(Cl)cc4)cc3C(=O)N([C@@H](C)CO)C[C@@H]2C)cc1,inactive
10,CC(C)C[C@H](NC(=O)[C@H](CCCCN)NC(=O)[C@H](CCCNC(=N)N)NC(=O)[C@H](C)NC(=O)[C@H](CO)NC(=O)[C@H](CCCCN)NC(=O)[C@H](CCCNC(=N)N)NC(=O)[C@H](C)NC(=O)CNC(=O)[C@@H](NC(=O)[C@H](Cc1ccccc1)NC(=O)CNC(=O)CNC(=O)[C@@H](N)Cc1ccccc1)[C@@H](C)O)C(=O)N[C@@H](C)C(=O)N[C@@H](CC(N)=O)C(=O)N[C@@H](CCC(N)=O)C(=O)O,inactive
11,Cc1nnc(=O)[nH]c1NNc1ccccc1,inactive
12,O=C(N[C@H](c1ccc(F)cc1)c1ccc2ccccc2n1)C1CCN(CCOc2ccc(Cl)cc2)CC1,inactive
13,COc1ccc(S(=O)(=O)N[C@@H]2C=C[C@@H](CC(=O)NCCc3ccncc3)O[C@H]2CO)cc1,inactive
14,COc1ccc(NC(=O)N(C)C[C@@H]2Oc3c(NC(=O)c4ccc(-c5nccs5)cc4)cccc3C(=O)N([C@@H](C)CO)C[C@H]2C)cc1,inactive
15,CCS(=O)(=O)N1C[C@]2(CN(Cc3cc(ccc3F)F)C2)c2c(n(c3cc(ccc23)OC)C)[C@@H]1CO,inactive
16,C[C@@H]1CN([C@@H](C)CO)C(=O)c2cc(NC(=O)c3ccncc3)ccc2O[C@@H](C)CCCCO[C@H]1CN(C)S(C)(=O)=O,inactive
17,COc1ccc(NC(=O)N(C)C[C@@H]2Oc3c(NC(=O)CCCCCC(=O)Nc4ccccc4N)cccc3C(=O)N([C@@H](C)CO)C[C@@H]2C)cc1,inactive
18,C[C@@H]1CN([C@H](C)CO)C(=O)CCCn2nncc2CO[C@@H]1CN(C)C(=O)Nc1ccc(N2CCCCC2)cc1,inactive
19,C[C@H](CO)N1C[C@H](C)[C@H](CN(C)S(=O)(=O)c2cn(C)cn2)Oc2c(NC(=O)c3nc4ccccc4s3)cccc2C1=O,inactive
20,C[C@@H]1CN([C@H](C)CO)C(=O)Cc2cc(NC(=O)c3ccncc3)ccc2O[C@H]1CN(C)S(=O)(=O)c1cccs1,inactive
21,Clc1ccc(-c2cc[nH]n2)cc1,inactive
22,CNC[C@@H]1OCCCC[C@@H](C)Oc2ccc(NS(=O)(=O)c3c(C)noc3C)cc2C(=O)N([C@@H](C)CO)C[C@H]1C,inactive
23,COc1ccc(NC(=O)Nc2ccc3c(c2)C(=O)N([C@@H](C)CO)C[C@@H](C)[C@@H](CN(C)Cc2ccc(Cl)c(Cl)c2)OCCCC[C@@H](C)O3)cc1,inactive
24,Cc1ccc(S(=O)(=O)N(C)C[C@@H]2OCCCC[C@@H](C)Oc3ccc(NC(=O)Nc4ccc5c(c4)OCO5)cc3C(=O)N([C@@H](C)CO)C[C@@H]2C)cc1,inactive
25,C[C@H]1CN([C@@H](C)CO)C(=O)c2cc(-c3cccc(C(=O)N(C)C)c3)cnc2O[C@@H]1CN(C)S(=O)(=O)c1ccccc1,inactive
26,COc1ccc(CN(C)C[C@@H]2OCCCC[C@H](C)Oc3ccc(NS(=O)(=O)c4ccc(F)cc4)cc3C(=O)N([C@@H](C)CO)C[C@@H]2C)cc1,inactive
27,C[C@H](CO)N1C[C@H](C)[C@H](CN(C)Cc2ccc(Oc3ccccc3)cc2)Oc2c(NC(=O)C3CCOCC3)cccc2C1=O,inactive

# — the antibiotic and cytotoxicity screens of Wong et al. (2023)
